# Measured values: the RNAGym collection of RNA variant scans (doi:10.7554/elife.90254)
# Read counts are not given, so values of variants with three or more changes are uncertain.
# B1: LINE1-mini (parent)
# chain: GGCAGAGCUCAACACAGCGUGGCAAAGUGGCUGUGGCUAGACUGCC
# Variants of: B1
# Assay: self-cleavage, relative activity (ratio to wild type); higher = more cleavage; in vitro, sequencing; the parent is a self-cleaving ribozyme
row,Variant,self-cleavage
1,G21A C37G U43C,0.07
2,G21A G22A C23U G36C,0.51
3,G21A G22A U34G C42A G44C,0.1
4,G21A G22C G35C,0.18
5,G21A G22C U34A G40U,0.05
6,G21A G27A G44A,0.36
7,G21A G27C G30A A41G,0.3
8,G21A G27C U28G G36U G40C,0.09
9,G21A G27U G29A,0.78
10,G21A G27U G44U,0.11
11,G21A G27U U34G,1.82
12,G21A G29A U32C U34A,0.02
13,G21A G29C U32G,1.18
14,G21A G29C U34A C46A,0.14
15,G21A G29U C42U,1.05
16,G21A G29U G35A,0.3
17,G21A G30A C31A C46A,0.22
18,G21A G30A U32A G40A,0.05
19,G21A G30C A39U C42A,0.02
20,G21A G33C G40A G44C,0.02
21,G21A G35A U38A U43C,0.03
22,G21A G35C A39U,0.08
23,G21A G35U C42A,0.08
24,G21A G36U G44A C46G,0.04

row,Variant,self-cleavage
1,G21A G36U U38C,0.02
2,G21A G40C U43G,0.19
3,G21A U28C G30U G44U,0.4
4,G21A U32G G40U,0.06
5,G21A U34G C45A,0.05
6,G21A U43C C46U,0.04
7,G21C A24G G36U C37U,0.02
8,G21C A24U G36U,0.34
9,G21C A25C U28G,0.37
10,G21C A25U U34C,0.54
11,G21C A26C G36U,0.02
12,G21C C23G C31U U38A,0.22
13,G21C C23G C37A,0.01
14,G21C C23U A25U,0.2
15,G21C C23U G27C G33C,0.15
16,G21C C23U G30A A39G,0.06
17,G21C C31A G40C,0.03
18,G21C C31G G35C,0.07
19,G21C C37U C42A C46A,0.01
20,G21C C42U G44A,0.15
21,G21C C45G C46G,0.16
22,G21C G22C C37G A39U,0.01
23,G21C G22C G30A C46G,0.09
24,G21C G22C G44A C46U,0.04

row,Variant,self-cleavage
1,G21C G22U C23A,0.67
2,G21C G22U U32C,0.33
3,G21C G27A U28A,0.68
4,G21C G27C C31G U32A,0.01
5,G21C G27U G33A G40C,0.03
6,G21C G30C G33A G35A,0.05
7,G21C G30C U32G C46A,0.02
8,G21C G33A G35A G36A,0.05
9,G21C G35U U43A G44C,0.04
10,G21C G40A G44U,0.33
11,G21C U38A C46A,1.26
12,G21C U43C C45U,0.04
13,G21U A24C G36U C37U,0.03
14,G21U A24G U38A,0.84
15,G21U A24U C37A,0.03
16,G21U A24U U43A,0.03
17,G21U A25G A39G,0.06
18,G21U A26C U34A,0.17
19,G21U A26U G33A C45G,0.03
20,G21U A39C C45G,0.21
21,G21U A41G C46G,0.36
22,G21U A41G U43A,0.04
23,G21U C23A G40C,0.02
24,G21U C23G C46A,0.19

row,Variant,self-cleavage
1,G21U C23U G27A C37A G40U,0.04
2,G21U C23U G35U G40U,0.16
3,G21U C23U U38G,0.04
4,G21U C31A G40C,0
5,G21U C31A U32A A41U,0.08
6,G21U C31G A39U A41U,0.07
7,G21U C31U C42G,0.03
8,G21U C37G U38G,0.01
9,G21U C37U G40U,0.3
10,G21U C42A C46A,0.06
11,G21U G22A G35U,0.41
12,G21U G22C G29C G33C,0.36
13,G21U G27A C46U,0.36
14,G21U G27A G36A,0.53
15,G21U G27C G30A U34C C45A,0.1
16,G21U G27C U28G G40C U43A,0.1
17,G21U G27U G29A G30U U38G C42G G44A,0.01
18,G21U G27U U34C U38A G40A,0.01
19,G21U G27U U43A,0.03
20,G21U G29C G35A,0.07
21,G21U G29U C37U,0.01
22,G21U G29U G30U C42G,0.3
23,G21U G29U G33U,0.25
24,G21U G29U U38G G44A C45G,0.04

row,Variant,self-cleavage
1,G21U G30A G33U C37A,0.04
2,G21U G30A G44A,0.11
3,G21U G30C A41U,0.2
4,G21U G30C C31U G44C,0.06
5,G21U G30U G44U,0.08
6,G21U G33A A41G,0.15
7,G21U G33C C37U,0.03
8,G21U G35A G44C,0.08
9,G21U G40A C46U,0
10,G21U G40C C42A,0.07
11,G21U G40U A41G C45A,0.2
12,G21U U28A A41G,0.26
13,G21U U28C G29U C31A C45U,0.07
14,G21U U28G C31U A41U,0.56
15,G21U U28G C31U G36U,0
16,G21U U32A G36C,0.01
17,G21U U32C G33A,0.05
18,G21U U32G A39C,0.09
19,G21U U32G G33A,0.11
20,G21U U34C C45U,0.07
21,G21U U34G C45A,0.04
22,G21U U34G G35U,0.06
23,G21U U34G G40A,0.01
24,G21U U38C A39C,0.09

row,Variant,self-cleavage
1,G21U U38C C45A,0.18
2,G21U U38G A39U,0.04
3,G21U U38G C42G,0
4,G22A A24G G36U C37U C45A,0.01
5,G22A A24U A25U,0.45
6,G22A A24U A39C,0.04
7,G22A A24U C31A A41U,0.17
8,G22A A25U A39U G40U,0.28
9,G22A A25U C42A,0.04
10,G22A A26G A41G,0.28
11,G22A C23G G27U C37A G40A,0.21
12,G22A C23G G30A G40A,0.09
13,G22A C23G G36A,0.11
14,G22A C23U C45U,1.08
15,G22A C31G U32G,0.06
16,G22A C31U A41C,0.12
17,G22A C37A C46A,0.02
18,G22A C37G A41C,0.03
19,G22A C42U U43A,0.06
20,G22A C42U U43C G44A,0.09
21,G22A G27C C42A,0.14
22,G22A G27C U38G C45G,0.01
23,G22A G27U C46A,0.87
24,G22A G27U U34C G35U A39C,0

row,Variant,self-cleavage
1,G22A G30U G33U,0.18
2,G22A G33A C37U C45A,0.04
3,G22A G33C A41G,0.03
4,G22A G33U U34A G35A A41U,0.03
5,G22A U28C G29U U38G,0
6,G22A U28G G30A C46A,0.25
7,G22A U32A C46A,0.09
8,G22A U34G C42A,0.03
9,G22C A24C C45A,0.11
10,G22C A24C G29C,0.08
11,G22C A24U G29C A41C,0.02
12,G22C A26G C45G,0.12
13,G22C A26U C31A G33A G36U,0.08
14,G22C A41C C46U,0.01
15,G22C A41U C45U,0.06
16,G22C A41U U43A,0.09
17,G22C C23A A41G C42A U43C G44U C45G,0.04
18,G22C C23A G30C C45G,1.47
19,G22C C23A G30C G36U,0.02
20,G22C C23A G35C,0.1
21,G22C C23U G33C A39U,0.08
22,G22C C23U G36C,0.04
23,G22C C23U U43A,0.01
